Measurements: PubChem BioAssay AID504832 (National Center for Advancing Translational Sciences (NCATS), 2011)
About 18,000 (5.8%) of roughly 310,000 compounds were called active. Inconclusive results, whose numbers are uncertain, are shown with a selection of clear calls. Calls follow the shape of the dose curve; as a rule, active = well fitted inhibition curve with a large enough effect; inconclusive = small, poorly fitted or top-dose-only effect, or another doubt; inactive = no such curve, though single readings can be large or run the other way. No potency is given beside an inconclusive call; the fits are too rough.

Assay: Primary qHTS for delayed death inhibitors of the malarial parasite plastid, 48 hour incubation
Settings: P. falciparum luciferase growth in erythrocytes; series mostly up to 28.7 µM
How it was run: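 Read-out is firefly luciferase luminescence from an integrated reporter in P. falciparum, so falling signal marks reduced parasite growth. Infected erythrocytes were at 2% hematocrit and 0.1% parasitemia (final) in Albumax-supplemented RPMI 1640.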
Potency is read from the fitted curve at half-maximal effect; tags tell the direction and shape of the fitted curve.

SMILES | Potency
COc1ccc(-n2c(=O)c3c4c(sc3n(CC(=O)NCc3ccco3)c2=O)CCC4)c(OC)c1 | inconclusive [inhibitor, single point]
Cc1ccc(Cn2cc(C(=O)NN)c(=O)c3ccc(F)cc32)cc1 | inconclusive [inhibitor, single point]
CC1(c2ccc(OC(F)F)cc2)NC(=O)N(CC(=O)Nc2ccc3[nH]c(=O)[nH]c3c2)C1=O (stereo not drawn) | inconclusive [inhibitor, single point]
O=C1CCCN1CC1CCN(Cc2nc(CC3CC3)no2)CC1 | inconclusive [inhibitor, partial curve, poor fit]
Cc1cc(N2CCN(S(=O)(=O)c3ccccc3)CC2)nc2c(C)cccc12 | inactive
COc1cc(OC)c(OC)cc1CNC(=O)c1cccc(S(=O)(=O)N2CCc3ccccc3C2)c1 | inconclusive [inhibitor, single point]
CCc1ccccc1Nc1nc(N)nc(COC(=O)CCC(=O)c2ccc(F)cc2)n1 | inconclusive [inhibitor, partial curve, poor fit]
CCOc1cc2[nH]c(=O)n(CCCCCC(=O)NC3CCCC3)c(=O)c2cc1OCC | inconclusive [inhibitor, partial curve]
CNc1ccc(Br)cc(C(=O)/C=C/c2cccc(Cl)c2Cl)c1=O | inconclusive [inhibitor, single point]
COc1ccc(Nc2c3c(nc4c(-c5ccccc5)c(C)nn24)CCC3)cc1 | active: 13.1 µM
Cc1c(C(=O)NCC2CCCO2)cccc1[N+](=O)[O-] (stereo not drawn) | inactive
Cc1ccc2nc(C)c(C)nc2c1N | inactive
COc1ccc(Cl)cc1NC(=S)NCCCN1CCCC1=O | inactive
COc1ccccc1NC(=O)CCc1nc2ccccc2s1 | inactive
COc1cccc(NC(=O)C/C(C)=N/NC(=O)C2CCCCC2)c1 | inactive
CO[C@H]1[C@@H](O)CC(OC2[C@@H](O)CC(OC3[C@@H](O)C[C@H](OC4CC[C@@]5(C)C(CCC6C5CC(O)[C@]5(C)[C@H](C7=CC(=O)OC7)CCC65O)C4)O[C@@H]3C)O[C@@H]2C)O[C@@H]1C (stereo partly drawn) | inconclusive [inhibitor, single point]
Cc1ccc(S(=O)(=O)N2C(=O)CCC2C(=O)O/N=C(\N)c2ccccc2)cc1 (stereo not drawn) | inconclusive [inhibitor, partial curve, poor fit]
CCCCOc1ccc(CSC(=N)N)cc1Cl | inconclusive [inhibitor, single point]
Cc1ccccc1N(C(=O)CCCC(=O)Nc1ccccn1)C(C(=O)NC1CCCC1)c1ccc(O)cc1 (stereo not drawn) | inconclusive [inhibitor, single point]
Cc1onc(C(=O)Nc2cccnc2Cl)c1[N+](=O)[O-] | inconclusive [inhibitor, single point]
Cn1c(Cn2c(=O)sc3ccccc32)nnc1SCC(=O)N1CCCc2ccccc21 | inconclusive [inhibitor, partial curve, poor fit]
COCC(C)n1c(C)cc(C(=O)COc2ccc(N(C)S(=O)(=O)c3ccc(NC(C)=O)cc3)cc2)c1C (stereo not drawn) | active: 4.65 µM
C/C=C/Cn1c(N(C)Cc2ccccc2)nc2c1c(=O)[nH]c(=O)n2C | inconclusive [inhibitor, partial curve]

SMILES | Potency
COc1ccccc1NC(=O)COc1ccc(/C=N/NC(=O)CSCc2ccc(Cl)cc2)cc1 | inactive
CC(C)SCC(=O)Nc1ncc2c(n1)-c1ccccc1CC2 | inconclusive [inhibitor, single point]
COC(=O)[C@]1(C)N[C@H](c2ccc(-c3ccc(Cl)c(Cl)c3)cc2)[C@@H]2C(=O)N(C)C(=O)[C@@H]21 | inconclusive [inhibitor, single point]
COc1ccc(Cc2nc(-c3ccc(Br)cc3)no2)cc1 | inactive
CC(C)[C@H](NC(=O)c1ccc(Br)cc1)C(=O)NC1CCCCC1 | inconclusive [inhibitor, single point]
Cc1[nH]cnc1CSCc1ccc(Cl)cc1 | inconclusive [inhibitor, partial curve]
COc1cccc(NC(=O)c2cc3ccccc3o/c2=N\O)c1 | inactive
COc1ccc(N(C)C(=O)c2cc3c(s2)-c2ccccc2S(=O)(=O)C3)cc1 | active: 2.94 µM
Cc1cc([N+](=O)[O-])ccc1N=Nc1c(N)[nH]n(-c2ccccc2)c1=O | inactive
CC(=O)Nc1ccc(OCC(=O)NCc2ccc3c(c2)OCO3)cc1 | inconclusive [inhibitor, single point]
Cc1cccnc1N(C(=O)Nc1ccccc1)C1=NCC(C)(C)S1 | inconclusive [inhibitor, single point]
Cc1ccc(S(=O)(=O)N(CC(=O)N2CCc3ccccc3C2)c2ccc(Cl)c(Cl)c2)cc1 | active: 10.4 µM
Cc1cccc(C(=O)Nc2ccccc2C(=O)NCc2cccnc2)c1 | inconclusive [inhibitor, single point]
O=[N+]([O-])c1cccc(-c2cc(C(F)(F)F)n3nc(-c4ccccc4)cc3n2)c1 | inconclusive [inhibitor, single point]
COc1ccc(C2(c3ccc(OC)cc3)NC(=O)N(CC(=O)NC3(C#N)CCCCC3)C2=O)cc1 | inconclusive [inhibitor, single point]
CCC(C)(C)C1CCC2(CC1)NC(=O)N(CC(=O)N1CCN(S(=O)(=O)c3cc(C)ccc3C)CC1)C2=O (stereo not drawn) | inactive
COc1cccc(NC(=O)CSc2ccc3nnc(-c4cccnc4)n3n2)c1 | inconclusive [inhibitor, single point]
Clc1ccc2[nH]c3c(N4CCC5(CC4)OCCO5)ncnc3c2c1 | inconclusive [inhibitor, single point]
COC(=O)c1ccc(NC(=O)CCN2CCOCC2)cc1 | inconclusive [inhibitor, partial curve, poor fit]
CCc1cc(=O)oc2cc(C)cc(OCC(=O)NCCc3c[nH]c4ccccc34)c12 | active: 1.85 µM
Cc1cc(=O)oc2cc(O[C@@H]3O[C@H](CO)[C@@H](O)[C@H](O)[C@H]3O)ccc12 | inactive
Clc1ccc(C(c2nnnn2CCc2ccccc2)N2CCSCC2)cc1 (stereo not drawn) | inconclusive [inhibitor, single point]
COc1cccc(-c2c(-c3cc(OC)cc(OC)c3)n(C)c3ccc(-c4cnc(OC)nc4)cc23)c1 | inconclusive [inhibitor, full curve, poor fit]

SMILES | Potency
CCN(CC)S(=O)(=O)c1ccc(N2CCOCC2)c(NC(=O)C2CC2)c1 | inconclusive [inhibitor, single point]
COc1ccc(S(=O)(=O)N2CCC(NC(=O)c3cccc(F)c3)CC2)cc1 | inconclusive [inhibitor, partial curve, poor fit]
COc1cccc(C2C(C(N)=O)=C(C)Nc3nc(-c4cccc(Cl)c4)nn32)c1 (stereo not drawn) | inconclusive [inhibitor, single point]
CN(N)c1nc2ccccc2nc1C(F)(F)F | inactive
CSc1c2c(nc3ncnn13)CCC2 | inconclusive [inhibitor, partial curve]
O=C(C1=C[C@@H](c2csc3ccccc23)C[C@@H](OCc2ccc(CO)cc2)O1)N1CCN(Cc2ccc3c(c2)OCO3)CC1 | inconclusive [inhibitor, full curve, poor fit]
COc1ccc(CN2CCNC(=O)C2CC(=O)NC2CCCCCCC2)cc1OC (stereo not drawn) | active: 11.7 µM
COc1ccc(C=C2c3ccccc3C(=O)c3ccccc32)c(OC)c1 | inconclusive [inhibitor, single point]
O=C(c1ccc2c(=O)n(Cc3ccc(Cl)cc3)c(=S)[nH]c2c1)N1CCCC1 | inactive
CCCCC(=O)Nc1cccc(C(C)O)c1 (stereo not drawn) | inconclusive [inhibitor, partial curve, poor fit]
COc1ccccc1NC(=O)c1ccc(NC(=O)CN2CCN(C(=O)c3ccco3)CC2)cc1 | inactive
NCc1ccc(S(N)(=O)=O)cc1 | inconclusive [inhibitor, single point]
COc1ccc(S(=O)(=O)NCc2ccncc2)cc1NC(=O)c1ccccc1 | inactive
CC(=O)Nc1ccc(N/C=C/C(=O)c2ccccc2)cc1 | inactive
CN(C(=O)NC1CCCCC1)c1ccccc1 | inactive
COc1ccccc1C(=O)N1CC(=O)Nc2ccc(F)cc2C1c1ccccc1 (stereo not drawn) | inconclusive [inhibitor, partial curve]
CN=C(Nc1cccnc1)c1ccccc1 | inactive
CC1CCCC(C)N1S(=O)(=O)c1ccc(NC(=O)CNCC2CCCO2)cc1 (stereo not drawn) | inconclusive [inhibitor, partial curve]
O=C(CSc1nc(-c2ccccc2)cc(=O)[nH]1)Nc1ccc(Br)cc1 | inactive
COc1ccc(CN(CCN)C2CC(C)N(C)CC2C)cc1 (stereo not drawn) | inconclusive [inhibitor, single point]
Cc1cc(C(=O)Cn2nc(C(=O)O)c3ccccc3c2=O)c(C)n1-c1ccc(OC(F)F)cc1 | inconclusive [inhibitor, single point]
CC1CCCCC1NC(=O)CN(C)S(=O)(=O)c1ccc2c(c1)CCC(=O)N2 (stereo not drawn) | inactive
